{"source": "the antibiotic and cytotoxicity screens of Wong et al. (2023)", "note": "Some of the results follow.", "data": [{"test_system": "HepG2", "assay": "cytotoxicity call (relative viability < 0.9)", "settings": "10 µM", "values": [{"smiles": "C[C@@H]1CCCCO[C@@H](CN(C)S(=O)(=O)c2ccccc2)[C@@H](C)CN([C@@H](C)CO)C(=O)c2cc(NS(C)(=O)=O)ccc2O1", "cytotoxicity call": "inactive"}, {"smiles": "CC(C)(C)C(=O)OCOP(=O)(COCCn1cnc2c(N)ncnc21)OCOC(=O)C(C)(C)C", "cytotoxicity call": "active"}, {"smiles": "COc1ccc(NC(=O)N(C)C[C@@H]2Oc3ncc(C#CC(C)(C)O)cc3C(=O)N([C@H](C)CO)C[C@@H]2C)cc1", "cytotoxicity call": "inactive"}, {"smiles": "COc1ccc(-c2cnc3c(c2)C(=O)N([C@@H](C)CO)C[C@H](C)[C@H](CN(C)C(=O)Cc2ccncc2)O3)cc1", "cytotoxicity call": "inactive"}, {"smiles": "NC(=O)c1cccc(N)c1", "cytotoxicity call": "inactive"}, {"smiles": "Cc1noc(C)c1NC(=O)Nc1ccc2c(c1)C(=O)N([C@H](C)CO)C[C@@H](C)[C@H](CN(C)Cc1ccc(C(F)(F)F)cc1)OCCCC[C@H](C)O2", "cytotoxicity call": "inactive"}, {"smiles": "COc1ccc(S(=O)(=O)N(C)C[C@H]2OCCCC[C@H](C)Oc3ccc(NS(=O)(=O)c4cn(C)cn4)cc3C(=O)N([C@H](C)CO)C[C@@H]2C)cc1", "cytotoxicity call": "inactive"}, {"smiles": "COc1ccc(C#Cc2ccc3c(c2)[C@]2(C(=O)N3)[C@H](c3ccc(O)cc3)N3[C@H](c4ccccc4)[C@H](c4ccccc4)OC(=O)[C@H]3[C@@H]2C(=O)N2CCc3cc(OC)c(OC)cc3C2)cc1", "cytotoxicity call": "inactive"}, {"smiles": "CC(C)(C)S(=O)N1Cc2cc(C(=O)N[C@@H]3CCN(Cc4ccccc4)C3)nc(-c3cccc(C#CCC4CCCC4)c3)c2[C@@H]1CCO", "note": "(some centres not stated)", "cytotoxicity call": "inactive"}, {"smiles": "C[C@H]1CN([C@@H](C)CO)C(=O)c2cccc(NS(=O)(=O)c3cccs3)c2O[C@H]1CN(C)S(=O)(=O)c1cn(C)cn1", "cytotoxicity call": "inactive"}, {"smiles": "C[C@H]1CN([C@@H](C)CO)C(=O)Cc2cc(NC(=O)Nc3cccc4ccccc34)ccc2O[C@@H]1CN(C)Cc1ccc(C(F)(F)F)cc1", "cytotoxicity call": "inactive"}, {"smiles": "C[C@@H]1CN([C@H](C)CO)C(=O)Cc2cc(NC(=O)Cn3cnnn3)ccc2O[C@@H]1CN(C)S(=O)(=O)c1cccs1", "cytotoxicity call": "inactive"}, {"smiles": "COc1ccc(OCCC(=O)NN)cc1", "cytotoxicity call": "inactive"}, {"smiles": "CCn1c(N)nc2c1c(=O)[nH]c(=O)n2C", "cytotoxicity call": "inactive"}, {"smiles": "C[C@@H]1CN([C@@H](C)CO)C(=O)c2cc(C#CC3CCCCC3)cnc2O[C@H]1CN(C)C(=O)c1ccncc1", "cytotoxicity call": "inactive"}, {"smiles": "C[C@@H]1CCCCO[C@@H](CN(C)CC2CCCCC2)[C@H](C)CN([C@H](C)CO)C(=O)c2cc(NC(=O)NC3CCCCC3)ccc2O1", "cytotoxicity call": "inactive"}, {"smiles": "C[C@@H]1CN([C@@H](C)CO)C(=O)c2cccc(NC(=O)Nc3cccc4ccccc34)c2O[C@H]1CN(C)CC1CC1", "cytotoxicity call": "inactive"}, {"smiles": "C[C@H]1CCCCO[C@H](CN(C)S(C)(=O)=O)[C@@H](C)CN([C@@H](C)CO)C(=O)c2cc(NC(=O)c3ccncc3)ccc2O1", "cytotoxicity call": "inactive"}, {"smiles": "CCC(=O)Nc1ccc(C)c(C)c1", "cytotoxicity call": "inactive"}, {"smiles": "C[C@H]1CN([C@@H](C)CO)C(=O)Cc2cc(NC(=O)Nc3ccc(C(F)(F)F)cc3)ccc2O[C@H]1CN(C)Cc1ccc2c(c1)OCO2", "cytotoxicity call": "inactive"}, {"smiles": "Cl.NCC(=O)CCC(=O)O", "cytotoxicity call": "inactive"}, {"smiles": "Cc1ccc(S(=O)(=O)Nc2ccc3c(c2)C(=O)N([C@H](C)CO)C[C@@H](C)[C@@H](CN(C)Cc2ccc(C(=O)O)cc2)OCCCC[C@H](C)O3)cc1", "cytotoxicity call": "inactive"}]}, {"test_system": "S. aureus RN4220", "assay": "growth inhibition call (relative growth <= 0.2)", "settings": "50 µM", "values": [{"smiles": "C[C@H]1CCCCO[C@@H](CN(C)Cc2ccc(C(F)(F)F)cc2)[C@@H](C)CN([C@@H](C)CO)C(=O)c2cc(NC(=O)NC3CCCCC3)ccc2O1", "growth inhibition call": "inactive"}, {"smiles": "COc1ccc(CNC(=O)C[C@@H]2C[C@H]3c4cc(NC(=O)NC5CCCC5)ccc4O[C@H]3[C@H](CO)O2)cc1", "growth inhibition call": "inactive"}, {"smiles": "CC(=O)N1C[C@H](O)C[C@H]1C(=O)O", "growth inhibition call": "inactive"}, {"smiles": "C[C@H](O)C#Cc1cnc2c(c1)C(=O)N([C@@H](C)CO)C[C@@H](C)[C@@H](CN(C)C(=O)Nc1ccc(C(F)(F)F)cc1)O2", "growth inhibition call": "inactive"}, {"smiles": "C[C@@H]1CN([C@@H](C)CO)C(=O)c2cc(NC(=O)NC3CCCCC3)ccc2O[C@@H](C)CCCCO[C@H]1CN(C)C(=O)c1ccccc1", "growth inhibition call": "inactive"}, {"smiles": "CO[C@@]1(NC(=O)[C@@H](C(=O)O)c2ccc(O)cc2)C(=O)N2C(C(=O)O)=C(CSc3nnnn3C)CO[C@@H]21", "growth inhibition call": "inactive"}, {"smiles": "O=C(C[C@@H]1C[C@H]2c3cc(NS(=O)(=O)c4ccc(F)cc4)ccc3O[C@H]2[C@H](CO)O1)NCc1ccccn1", "growth inhibition call": "inactive"}, {"smiles": "C[C@@H]1CCCCO[C@@H](CN(C)C(=O)Nc2ccc(C(F)(F)F)cc2)[C@H](C)CN([C@H](C)CO)C(=O)c2cc(N(C)C)ccc2O1", "growth inhibition call": "inactive"}, {"smiles": "CC(C)CC#Cc1ccc2c(c1)O[C@H](CN(C)C(=O)NC1CCCC1)[C@@H](C)CN([C@H](C)CO)S2(=O)=O", "growth inhibition call": "inactive"}, {"smiles": "COc1ccc(S(=O)(=O)Nc2cccc3c2O[C@@H](CN(C)Cc2ccncc2)[C@H](C)CN([C@H](C)CO)C3=O)cc1", "growth inhibition call": "inactive"}, {"smiles": "COCCOC(=O)N1C(=O)[C@@]2(c3cc(C#CCCO)ccc31)[C@H](c1ccc(O)cc1)N1[C@H](c3ccccc3)[C@H](c3ccccc3)OC(=O)[C@H]1[C@@H]2C(=O)NC[C@H](O)c1ccccc1", "growth inhibition call": "inactive"}, {"smiles": "COc1ccc(CN(C)C[C@H]2OCCCC[C@@H](C)Oc3ccc(NC(=O)Nc4ccc(C(F)(F)F)cc4)cc3C(=O)N([C@@H](C)CO)C[C@H]2C)cc1", "growth inhibition call": "inactive"}, {"smiles": "C[C@@H]1CN([C@H](C)CO)C(=O)c2cc(NC(=O)NC3CCCCC3)ccc2O[C@@H](C)CCCCO[C@H]1CN(C)C(=O)CCC(F)(F)F", "growth inhibition call": "inactive"}, {"smiles": "COc1ccc(S(=O)(=O)Nc2ccc3c(c2)CC(=O)N([C@@H](C)CO)C[C@@H](C)[C@@H](CN(C)S(=O)(=O)c2cn(C)cn2)O3)cc1", "growth inhibition call": "inactive"}, {"smiles": "COCCCNC(=O)[C@@]1(Sc2ccc(C)cc2)CC(=O)N(C2CCCCC2)[C@@H]1c1ccc(CO)cc1I", "growth inhibition call": "inactive"}, {"smiles": "C[C@@H]1CCCCO[C@@H](CN(C)CC2CCCCC2)[C@@H](C)CN([C@H](C)CO)C(=O)c2cc(NC(=O)Nc3ccccc3)ccc2O1", "growth inhibition call": "inactive"}, {"smiles": "COc1ccc(CN(C)C[C@H]2OCCCC[C@H](C)Oc3ccc(NC(=O)c4ccccc4)cc3C(=O)N([C@H](C)CO)C[C@@H]2C)cc1", "growth inhibition call": "inactive"}, {"smiles": "O=c1[nH][nH]c(=O)c(Cl)c1Cl", "growth inhibition call": "inactive"}, {"smiles": "C[C@@H]1CCCCO[C@@H](CN(C)S(=O)(=O)c2ccccc2)[C@@H](C)CN([C@@H](C)CO)C(=O)c2cc(NS(C)(=O)=O)ccc2O1", "growth inhibition call": "inactive"}, {"smiles": "CC(C)(C)C(=O)OCOP(=O)(COCCn1cnc2c(N)ncnc21)OCOC(=O)C(C)(C)C", "growth inhibition call": "inactive"}, {"smiles": "COc1ccc(NC(=O)N(C)C[C@@H]2Oc3ncc(C#CC(C)(C)O)cc3C(=O)N([C@H](C)CO)C[C@@H]2C)cc1", "growth inhibition call": "inactive"}, {"smiles": "COc1ccc(-c2cnc3c(c2)C(=O)N([C@@H](C)CO)C[C@H](C)[C@H](CN(C)C(=O)Cc2ccncc2)O3)cc1", "growth inhibition call": "inactive"}, {"smiles": "NC(=O)c1cccc(N)c1", "growth inhibition call": "inactive"}, {"smiles": "Cc1noc(C)c1NC(=O)Nc1ccc2c(c1)C(=O)N([C@H](C)CO)C[C@@H](C)[C@H](CN(C)Cc1ccc(C(F)(F)F)cc1)OCCCC[C@H](C)O2", "growth inhibition call": "inactive"}, {"smiles": "COc1ccc(S(=O)(=O)N(C)C[C@H]2OCCCC[C@H](C)Oc3ccc(NS(=O)(=O)c4cn(C)cn4)cc3C(=O)N([C@H](C)CO)C[C@@H]2C)cc1", "growth inhibition call": "inactive"}, {"smiles": "COc1ccc(C#Cc2ccc3c(c2)[C@]2(C(=O)N3)[C@H](c3ccc(O)cc3)N3[C@H](c4ccccc4)[C@H](c4ccccc4)OC(=O)[C@H]3[C@@H]2C(=O)N2CCc3cc(OC)c(OC)cc3C2)cc1", "growth inhibition call": "inactive"}, {"smiles": "CC(C)(C)S(=O)N1Cc2cc(C(=O)N[C@@H]3CCN(Cc4ccccc4)C3)nc(-c3cccc(C#CCC4CCCC4)c3)c2[C@@H]1CCO", "note": "(some centres not stated)", "growth inhibition call": "inactive"}, {"smiles": "C[C@H]1CN([C@@H](C)CO)C(=O)c2cccc(NS(=O)(=O)c3cccs3)c2O[C@H]1CN(C)S(=O)(=O)c1cn(C)cn1", "growth inhibition call": "inactive"}, {"smiles": "C[C@H]1CN([C@@H](C)CO)C(=O)Cc2cc(NC(=O)Nc3cccc4ccccc34)ccc2O[C@@H]1CN(C)Cc1ccc(C(F)(F)F)cc1", "growth inhibition call": "inactive"}, {"smiles": "C[C@@H]1CN([C@H](C)CO)C(=O)Cc2cc(NC(=O)Cn3cnnn3)ccc2O[C@@H]1CN(C)S(=O)(=O)c1cccs1", "growth inhibition call": "inactive"}, {"smiles": "COc1ccc(OCCC(=O)NN)cc1", "growth inhibition call": "inactive"}, {"smiles": "CCn1c(N)nc2c1c(=O)[nH]c(=O)n2C", "growth inhibition call": "inactive"}, {"smiles": "C[C@@H]1CN([C@@H](C)CO)C(=O)c2cc(C#CC3CCCCC3)cnc2O[C@H]1CN(C)C(=O)c1ccncc1", "growth inhibition call": "inactive"}, {"smiles": "C[C@@H]1CCCCO[C@@H](CN(C)CC2CCCCC2)[C@H](C)CN([C@H](C)CO)C(=O)c2cc(NC(=O)NC3CCCCC3)ccc2O1", "growth inhibition call": "inactive"}, {"smiles": "C[C@@H]1CN([C@@H](C)CO)C(=O)c2cccc(NC(=O)Nc3cccc4ccccc34)c2O[C@H]1CN(C)CC1CC1", "growth inhibition call": "inactive"}, {"smiles": "C[C@H]1CCCCO[C@H](CN(C)S(C)(=O)=O)[C@@H](C)CN([C@@H](C)CO)C(=O)c2cc(NC(=O)c3ccncc3)ccc2O1", "growth inhibition call": "inactive"}, {"smiles": "CCC(=O)Nc1ccc(C)c(C)c1", "growth inhibition call": "inactive"}, {"smiles": "C[C@H]1CN([C@@H](C)CO)C(=O)Cc2cc(NC(=O)Nc3ccc(C(F)(F)F)cc3)ccc2O[C@H]1CN(C)Cc1ccc2c(c1)OCO2", "growth inhibition call": "inactive"}, {"smiles": "Cl.NCC(=O)CCC(=O)O", "growth inhibition call": "inactive"}, {"smiles": "Cc1ccc(S(=O)(=O)Nc2ccc3c(c2)C(=O)N([C@H](C)CO)C[C@@H](C)[C@@H](CN(C)Cc2ccc(C(=O)O)cc2)OCCCC[C@H](C)O3)cc1", "growth inhibition call": "inactive"}]}]}
